# Patent US9833433B1, “Compositions, methods of use, and methods of treatment” (priority 2013, dated 2017)
# Tested on: GluA1, GluN2A, GluN2B
# Assay: Immunostaining of synaptic and extrasynaptic glutamate receptor subunits in hippocampal CA1
# Conditions: repeated Δ^9-THC exposure
compound,measurement,value
"CCCCCc1cc(O)c2c(c1)OC(C)(C)[C@@H]1CCC(C)=C[C@@H]21 [Δ^9-THC, Δ^9-tetrahydrocannabinol]","synaptic and extrasynaptic GluA1, GluN2A, GluN2B expression (immunostaining)",significantly reduced
